Results from article PMC12136788.
Some of the results follow.

B1: ENSG00000103257:stop:overlap|stop_codon|ENSG00000103257|stop_codon|NA|stop_codon (ssRNA)
RNA: GGGAGUUCUACAGUCCGACGAUCGCAUCUUCUCCACGACCGUCCUGUGUCAGAAGCUCAUGCAGGUGGUCCCCCAGGAGACAUAGCCAGGAGGCCGAGUGGCUGCCGGAGGAGCAUGCGCAGAGGCCAGUUAAAGUAGAUCACCAACAGAGGAUUGAGCAUCA
B2: chr4:168927217:168927233:+|3pUTR|ENSG00000129116|msi1_unk|FALSE|overlapping (ssRNA)
RNA: GGGAGUUCUACAGUCCGACGAUCAACCACCCAAAUGACCAAGGCAUAUAUAGUAUUUGGAGGAAUCAGGGGUUUGGAAGGAGUAGGGAGGAGAAUGAAGGAAAAUGCAACCAGCAUGAUUAUAGUGUGUUCAUUUAGAUAAAACAACAGAGGAUUGAGCAUCA
B3: ENSG00000198589:be:win_5101|CDS|ENSG00000198589|bound_else_gene|NA|bound_elsewhere_windowed (ssRNA)
RNA: GGGAGUUCUACAGUCCGACGAUCCCACCAGCCUGCCUUGGAGCCCUUGGUGAUCUAUCUGUGGAACAACCCGUGCAGUUCAGAUCUUUUGACAGAAGUGUCAUUGUUGCAGCAAAAAAGUCAGCAGUCUCACCUUCCACCUUUCAACAGAGGAUUGAGCAUCA
B4: chr4:17843545:17843646:+|3pUTR|ENSG00000109805|msi1|FALSE|unique (ssRNA)
RNA: GGGAGUUCUACAGUCCGACGAUCCUGUGCGCUUCCACGUUACUUUGGCCUGUAUUAAAGCAGUAGAGCAGCAUCAGUUAUUAUAGUCCAGAAAAAGUGUGCAUCAGUCAGUCACACAGAUUUAUCACAAUCUGAGGUGGGCCUCAACAGAGGAUUGAGCAUCA
B5: chr21:36753219:36753320:-|3pUTR|ENSG00000159267|msi1|FALSE|bound_elsewhere (ssRNA)
RNA: GGGAGUUCUACAGUCCGACGAUCGUUUCAGAUUUACUCUGAAAUGUGGAGCAUUCCUGCAAGACUGUGCAGCUCACGGAAUAUAGAAGACAUGGCAUUUUACUCAGAAGUCAUAAGUUUUUGCCCCCCUCAUUUACCUCGUAUCAACAGAGGAUUGAGCAUCA
B6: chr2:200823707:200823808:+|3pUTR|ENSG00000082153|msi1|FALSE|bound_elsewhere (ssRNA)
RNA: GGGAGUUCUACAGUCCGACGAUCUGAGUAACUUUGAUAAAGUUUUUCAUGCACAGGCAAAAUGUAUUCACUAGAUUUCUACGUAGUGAUCUGCUUUUACUUUGUAAUUUGUAGUUCUCAAAAGACUUUUUUUUAAAAAAAUAACAACAGAGGAUUGAGCAUCA
B7: chr20:25297698:25297799:+|3pUTR|ENSG00000100994|msi1|total|mutant (ssRNA)
RNA: GGGAGUUCUACAGUCCGACGAUCCCCAAGAGAGAGGGCAGGGAACAGGCUACUGUCCUUCCCUGUGGAAUUGCCGAGAAAUCCCGCACCUUGCAUGCUGGAUCUGGGCUGCGGGGAGGCUCUUUUUCUCCCUGGCCUCCAGUGCAACAGAGGAUUGAGCAUCA
B8: ENSG00000070961:be:win_2551|CDS|ENSG00000070961|bound_else_gene|NA|bound_elsewhere_windowed (ssRNA)
RNA: GGGAGUUCUACAGUCCGACGAUCAGCAUCUCAAAAUUCCUUCAGUUCCAACUUACUGUUAAUGUAGUAGCAGUGAUUGUUGCUUUUACGGGCGCCUGCAUUACUCAAGACUCACCGCUUAAGGCUGUGCAGAUGCUGUGGGUACAACAGAGGAUUGAGCAUCA
B9: chr1:214641902:214642005:+|CDS|ENSG00000117724|unk|total|mutant (ssRNA)
RNA: GGGAGUUCUACAGUCCGACGAUCAGAAAUCAAUGUAAUUUUAAACCUCAGAUGGAUCUUGAAGUUAAAGAAAUUUCUCCCGACCGUUAUAAUGCGCAGUUGGUGCAAUCCGAAGCUAUGCUAAGAAAUAAGGAAUUAAAACUUCAACAGAGGAUUGAGCAUCA
B10: chr18:9400975:9401076:+|3pUTR|ENSG00000128791|msi1|FALSE|unique (ssRNA)
RNA: GGGAGUUCUACAGUCCGACGAUCUAUAAAAAUAGAUAAUGCUCUUGGACACAUUUUGUAUUAUUCAUGAUCUGAAUAGUAGUUAGUUAAAAGAUCAUUUGUAAUAUUAUGAUCAACUGUUAUAAAUUAAGGUCUUAAUACCUUCAACAGAGGAUUGAGCAUCA
B11: chr16:70157515:70157662:+|3pUTR|ENSG00000090857|msi1|total|mutant (ssRNA)
RNA: GGGAGUUCUACAGUCCGACGAUCCUCCCUAUAAUUUUCUUCAUCUCUUGCUAAUCUCUAUAAUAAGGUUGCUUUUUCUUUCUCCGUUGAGUAAACAAGUAAGCCACAGUGUUUGAAAGGGAAAAACCAUAUUGCCUUGUGUGUCAACAGAGGAUUGAGCAUCA
B12: chrX:13708825:13708941:+|CDS|ENSG00000123595|unk|total|mutant (ssRNA)
RNA: GGGAGUUCUACAGUCCGACGAUCGAGUUCACUUAUGAACAGAUAUGUAACUAAUAAGUUUGAUACCCAGCUCUUCCAUACAACCGGUGUGGAAUUUUUAAAUAAAGAUUUGGAAGUGGAUGGACAUUUUGUUACCAUGCAGAUCAACAGAGGAUUGAGCAUCA
B13: chr18:5392435:5392536:-|3pUTR|ENSG00000082397|msi1|FALSE|unique (ssRNA)
RNA: GGGAGUUCUACAGUCCGACGAUCAAGCCUUAAACUGUACAGAAUUUCCACUGUAAUUAAAACUAUUUAGUGUUAGUUAUAAAUAGCCUUCAAAAAGAGAGAUUCUCCAUUACACGAUCACCUGCAUCACAGCCCAUGGUGAAUCAACAGAGGAUUGAGCAUCA
B14: chr8:76864132:76864233:+|CDS|ENSG00000091656|msi1|FALSE|bound_elsewhere (ssRNA)
RNA: GGGAGUUCUACAGUCCGACGAUCUCAAGCUUGCACAAAGAGAAAACAAUCAAACAAGCAAUGAGAAAUGCCAAAGAGCAUGUUAGAUUAUUACCUCACUCAGUCUGCUCCCCUAAUCCUAACACCACAUCUACCUCGCAGUCUCAACAGAGGAUUGAGCAUCA

target: MSI1 full-length (mouse, UniProt Q61474 1-362); experiment: nsRBNS (natural sequence RNA bind-n-seq); RBNS binding buffer (assumed for nsRBNS): 25 mM Tris pH 7.5, 150 mM KCl, 3 mM MgCl2, 0.01% Triton X-100, 500 ug/ml BSA, 20 U/ml SUPERase-In, 4 C; UNK is unkempt and MSI1 is Musashi-1; names of the RNAs are library labels; protein concentration not given here; high values mean tight binding
Sequence of UniProt Q61474 (Q61474 whole entry): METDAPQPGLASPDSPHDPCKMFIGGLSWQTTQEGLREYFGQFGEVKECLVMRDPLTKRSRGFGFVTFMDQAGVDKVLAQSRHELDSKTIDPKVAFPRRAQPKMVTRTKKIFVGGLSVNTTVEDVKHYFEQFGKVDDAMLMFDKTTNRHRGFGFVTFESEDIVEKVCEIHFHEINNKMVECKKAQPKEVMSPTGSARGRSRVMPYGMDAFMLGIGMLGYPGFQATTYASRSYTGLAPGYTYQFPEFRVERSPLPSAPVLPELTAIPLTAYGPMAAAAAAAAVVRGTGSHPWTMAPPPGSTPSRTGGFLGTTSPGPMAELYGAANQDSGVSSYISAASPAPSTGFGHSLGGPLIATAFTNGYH

Binder | binding signal
B1 | 0.357 enrichment R
B2 | 4.58 enrichment R
B3 | 0.584 enrichment R
B4 | 4.57 enrichment R
B5 | 0.727 enrichment R
B6 | 1.33 enrichment R
B7 | 0.413 enrichment R
B8 | 0.491 enrichment R
B9 | 0.761 enrichment R
B10 | 24 enrichment R
B11 | 0.951 enrichment R
B12 | 0.493 enrichment R
B13 | 4.8 enrichment R
B14 | 1.24 enrichment R
